Results taken from PubChem BioAssay AID720542 (National Center for Advancing Translational Sciences (NCATS), 2013).
Among all 360,000 compounds or so, about 740 (0.21%) were called active. The inconclusive results got no clear call from the source; some entries with a clear call stand among them for comparison. The call rests on the fitted dose curve; in most records, active means well fitted inhibition curve with a large enough effect; inconclusive means small, poorly fitted or top-dose-only effect; inactive means no such curve, though single readings can be large or run the other way. Potencies of inconclusive entries are left out as doubtful fits.

test system: Plasmodium falciparum AMA1 (3D7) - RON2 peptide interaction; assay: qHTS for Inhibitors of AMA1-RON; Towards Development of Antimalarial Drug Lead: Primary Screen; conditions: AlphaScreen AMA1-biotinylated RON2 peptide binding; activity change, negative = inhibition: at 58.2 µM (top of the series) unless noted; further: nearly all actives have a fitted effect of over 45% in size;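 on activity change, negative = inhibition: 0% = vehicle wells and -100% = peptide control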
Procedure, shortened: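 AMA1 (3D7) with his tag at 25 nM final met compounds first, then biotinylated RON2 peptide at 25 nM; detection used donor plus acceptor beads, 10 µg/mL apiece, read by AlphaScreen after 30 min at room temperature.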
Potency means the concentration at half of the fitted maximal effect; tags describe the fitted curve by direction and shape.

Row | Compound | Potency | activity change, negative = inhibition
1 | c1ccc(CNc2ccc3c(c2)ncn3C2CCCCC2)nc1 | inconclusive [inhibitor, single point] | 
2 | Cc1nnc(SCc2ccc(Cl)cc2Cl)[nH]c1=O |  | inactive: -4.1%
3 | O=[N+]([O-])c1cc(CN2CCCC2)ccc1Sc1ccc(Cl)cc1 | inconclusive [inhibitor, single point] | 
4 | CC1CCN(C(CC(=O)c2ccccc2)C(=O)c2ccccc2)CC1 (centres undefined) | inconclusive [inhibitor, single point] | 
5 | COc1ccc(S(=O)(=O)N2CCCCC2)cc1NC(=O)C1CC1C (centres undefined) |  | inactive: -1.36%
6 | CCCN(C(=O)c1cccc(-n2cccc2)c1)c1c(N)n(Cc2ccccc2)c(=O)[nH]c1=O | inconclusive [inhibitor, partial curve] | 
7 | Cc1ccc(N2CCC3CC2c2cc(-c4ccc(C(F)(F)F)cc4)ccc23)cc1 (centres undefined) | inconclusive [inhibitor, partial curve] | 
8 | CC1=CC(C)(C)Nc2ccc(OC(=O)c3ccco3)cc21 |  | inactive: -18.3%
9 | Cc1ccc(CNC(=O)CNS(=O)(=O)c2ccc3nc(C)sc3c2)cc1 |  | inactive: -1.45%
10 | CN(C)c1ccc(N/C=C/C(=O)c2ccccc2)cc1 | inconclusive [inhibitor, single point] | 
11 | COc1ccc(N2CCN(C(=O)c3ccc4c(c3)CC(c3ccccc3)OC4=O)CC2)cc1 (centres undefined) | inconclusive [inhibitor, partial curve, poor fit] | 
12 | COc1cc(OC)cc(-c2ncc3ccccn23)c1 | inconclusive [inhibitor, single point] | 
13 | COc1nccnc1NS(=O)(=O)c1ccc(N=Cc2c(C)[nH]n(-c3ccccc3)c2=O)cc1 |  | inconclusive: -13% [inhibitor]
14 | CCCCC(c1nnnn1CC1CCCO1)N1CCN(c2nc3ccccc3s2)CC1 (centres undefined) | inconclusive [inhibitor, single point] | 
15 | CC1CCCN(CCCOc2ccc(Br)cc2Cl)C1 (centres undefined) | inconclusive [inhibitor, partial curve] | 
16 | CN(C)c1ccc(C=Cc2ccnc3ccccc23)cc1N | inconclusive [inhibitor, single point] | 
17 | COc1ccccc1NC(=O)/C(=C/c1cccs1)NC(=O)c1ccco1 | inconclusive [inhibitor, full curve, poor fit] | 
18 | CC(=O)c1c(C)nc(-c2ccccc2)nc1NC(=O)Cc1ccccc1 |  | inactive: -0.507%
19 | COc1ccc(-c2sc3cc(OC)ccc3c2-c2ccc(OCCN3CCCCC3)cc2)cc1 | inconclusive [inhibitor, full curve] | 
20 | Cc1ccc(C)c(C(=O)CN2C(=O)NC3(CCc4ccccc43)C2=O)c1 (centres undefined) |  | inactive: 7.54%
21 | Cc1ccc(/C=C2/C(=O)NC(=O)N(CCc3ccc(F)cc3)C2=O)o1 |  | inactive: -2.82%
22 | CCC(C)NCC(=O)Nc1cc(S(=O)(=O)N(CC)c2ccccc2)ccc1Cl (centres undefined) |  | inactive: 12% [at 11.6 µM]
23 | CN1CCN(C2=Nc3c(Cl)cc(Cl)c4cccc2c34)CC1 | inconclusive [inhibitor, partial curve] | 

Row | Compound | Potency | activity change, negative = inhibition
24 | O=C(N[C@H]1c2ccccc2C[C@H]1O)[C@H]1O[C@@H](n2ccc(=O)[nH]c2=O)[C@H](O)[C@@H]1O |  | inactive: 7.01%
25 | CNC(=S)N1N=C(c2ccc(C)cc2)CC1c1ccc(N(C)C)cc1 (centres undefined) | active: 28.2 µM | 
26 | COc1cc(CN2CCN(C(=O)c3ccccc3F)CC2)cc(OC)c1OC | inconclusive [inhibitor, single point] | 
27 | Cc1ccc(NCCC(=O)c2cccs2)cc1C | inconclusive [inhibitor, partial curve] | 
28 | COc1ccc(CNCc2cccc3ccccc23)cc1 | inconclusive [inhibitor, partial curve] | 
29 | O=C(COC(=O)c1ccccc1C(=O)c1ccc(Cl)c([N+](=O)[O-])c1)NC1CCCCCC1 |  | inactive: -7.49%
30 | Cc1ccc(/C(O)=C2/C(=O)C(=O)N(c3ccccn3)C2c2ccc(F)cc2)cc1 (centres undefined) | inconclusive [inhibitor, single point] | 
31 | C[C@]12c3[nH]c4cc(-c5ccco5)ccc4c3CCN1C(=O)[C@@H](CC(=O)NCCC1=CCCCC1)C[C@@H]2C(=O)N1CCOCC1 | inconclusive [inhibitor, single point] | 
32 | CC1CCN(c2nc(N(C)c3ccccc3)nc(N)c2[N+](=O)[O-])CC1 | inconclusive [inhibitor, partial curve] | 
33 | Cc1ccc(N2CCN(C(=S)c3ccc(N(C)C)cc3)CC2)cc1 | inconclusive [inhibitor, single point] | 
34 | CC(=O)Nc1cccc(NC(=O)c2cc(-c3cccnc3)nc3ccc(Cl)cc23)c1 |  | inactive: 5.03%
35 | COc1cc2c(cc1OC)CN(Cc1ccc(OC)c(C)c1OC)CC2 | inconclusive [inhibitor, partial curve] | 
36 | Cc1nc2c(C)cccn2c1/C(O)=C1\C(=O)C(=O)N(CCN2CCOCC2)C1c1ccncc1 (centres undefined) | inconclusive [inhibitor, single point] | 
37 | O=[N+]([O-])c1cccc(CN2CCN(Cc3ccc(Cl)cc3)CC2)c1 | inconclusive [inhibitor, partial curve] | 
38 | COCc1c(C(=O)OC)nnn1-c1ccc(C(F)(F)F)cc1[N+](=O)[O-] |  | inactive: -6.08%
39 | COc1cccc(N(C(=O)Cn2nnc(-c3ccc(C)cc3)n2)C(C(=O)NC(C)(C)C)c2c[nH]c3ccccc23)c1 (centres undefined) | inconclusive [inhibitor, partial curve] | 
40 | COC(=O)c1sc(NC(=O)CSc2nnc(C(C)C)n2C)nc1C | inconclusive [inhibitor, partial curve] | 
41 | CCOC(=O)C1CCN(C(=S)Nc2ccc(Cl)cc2C)CC1 | inconclusive [inhibitor, partial curve] | 
42 | C/C=C(/CCC1NCCc2c1[nH]c1ccccc21)[Si](C)(C)C (centres undefined) | inconclusive [inhibitor, single point] | 
43 | Cc1cc(C(=O)N/N=C2\CC(=O)CC(C)(C)C2)c(C)n1-c1ccccc1 |  | inactive: 48.5%
44 | O=C(CCn1c(=O)oc2ccccc21)N(Cc1ccccc1)c1ccccn1 | inconclusive [inhibitor, full curve, poor fit] | 
45 | COCCNC(=S)N/N=C(\C)c1ccc2cc(OC)ccc2c1 | inconclusive [inhibitor, single point] | 
46 | COC(=O)c1c(NC(=O)c2nc3ccccc3s2)sc2c1CCN(C(C)=O)C2 |  | inactive: 78.8%

Row | Compound | Potency | activity change, negative = inhibition
47 | O=C(CN1CCOCC1)Nc1ccc(Cl)c(Cl)c1 | inconclusive [inhibitor, single point] | 
48 | c1ccc(Cn2c(SCc3nc4ccccc4s3)nnc2-c2ccco2)cc1 | inconclusive [inhibitor, single point] | 
49 | CCN1CCN(c2nc(-c3ccccc3)c3ccccc3n2)CC1 |  | inactive: -21.2%
50 | CCCCc1ccc(-c2c(C#N)c(N)nc3c2CCCC3)s1 |  | inactive: 101%
51 | O=C(NNC(=O)c1ccco1)c1csc(N2CCOCC2)n1 |  | inactive: 107%
52 | COC(=O)c1cccc(C23CC4(C2)[C@H](CN(C)[C@@H]4c2ccccc2)C3c2ccccc2)c1 (some centres undefined) | inconclusive [inhibitor, single point] | 
53 | O=C(NNC(=S)NC1CCCCC1)c1cccs1 |  | inactive: 30.2%
54 | Cn1cccc1/C=N/N1CCN(c2ccccc2)CC1 | inconclusive [inhibitor, single point] | 
55 | O=C(COC(=O)c1cc(Cl)ccc1Cl)NCCN1C(=O)CSC1=O | inconclusive [inhibitor, partial curve] | 
56 | Cc1nc(Sc2ccc(Cl)cc2)c(C#N)c(C)c1[N+](=O)[O-] | inconclusive [inhibitor, partial curve] | 
57 | CSCCC(C(=O)NC(C)(C)C)n1c(-c2cccc(NC(C)=O)c2)nc2ccccc21 (centres undefined) |  | inactive: -5.25%
58 | Cc1ccc(/C=N/N2CCN(Cc3ccccc3)CC2)cc1 | active: 12.6 µM | 
59 | COc1ccc(N2CCN(C3CCCCC3NS(=O)(=O)c3ccccc3)CC2)cc1 (centres undefined) | inconclusive [inhibitor, partial curve] | 
60 | Nc1ccc(S(=O)(=O)NNC(=O)C(=O)NNc2ccccn2)cc1 |  | inactive: 45.5%
61 | COc1ccccc1NC(=O)c1ccc2snnc2c1 | inconclusive [inhibitor, partial curve] | 
62 | COc1ccccc1CCNC(=O)C(=O)Nc1cc2c3c(c1)C(C)C(=O)N3CCC2 (centres undefined) |  | inactive: -5.25%
63 | C/C(N)=C(/C#N)C(=O)CSc1nnc(NC(C)C)s1 | inconclusive [inhibitor, single point] | 
64 | CC(Nc1cc(N2CCN(C(=O)C(C)(C)C)CC2)ccc1[N+](=O)[O-])c1ccccc1 (centres undefined) | inconclusive [inhibitor, full curve, poor fit] | 
65 | CCOC(=O)/C(N=Nc1cc(C(=O)O)cc(C(=O)O)c1)=C(\O)CCl | inconclusive [inhibitor, single point] | 
66 | C=C(C)C1CC=C(C)/C(=N/Nc2ccccc2[N+](=O)[O-])C1 (centres undefined) | inconclusive [inhibitor, full curve, poor fit] | 
67 | CC1=C/C(=N\OS(=O)(=O)c2ccccc2)C(C(C)C)=CC1=O | inconclusive [inhibitor, partial curve] | 
68 | CCOC(=O)C1=C(CSc2nc3c(cc2C#N)CN(C)CC3)OC(N)=C(C#N)C1c1ccc(F)cc1 (centres undefined) | inconclusive [inhibitor, single point] | 
69 | CSCCC(NC(=O)c1ccc([N+](=O)[O-])cc1Cl)C(=O)OCC(=O)N(C)C (centres undefined) | inconclusive [inhibitor, single point] | 
